Values joined by “and” are separate entries in the source; they are usually repeats but may differ in a detail not shown here. Equal values may be shown once. Over roughly 5,300 compounds, “PER2::LUC luminescence relative to vehicle control” has its median near 0.96; the highest 2% begin near 1.3. Some of the results follow.
Tested on: mPer2Luc MEF
Assay: PER2::LUC luminescence relative to vehicle control (fold of vehicle); higher = higher PER2::LUC reporter signal
Details: 10 µM
Procedure, shortened: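 Mouse embryonic fibroblasts carrying the mPer2Luc reporter were seeded at ~3000 cells per well in 384-well plates, 48 h before compounds from commercial libraries were added at 10 μM. Cells were grown in DMEM with 10% FBS at 37 °C and 5% CO2. Luminescence was read with the ONE-Glo luciferase assay system 24 h and 30 h after treatment, followed by an alamarBlue viability assay. The value is PER2::LUC luminescence as fold of vehicle control.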

| Structure (SMILES) | PER2::LUC luminescence (time after treatment 24 h) | PER2::LUC luminescence (time after treatment 30 h) |
| --- | --- | --- |
| O=C1C[C@@H](c2ccccc2)Oc2cc(O)cc(O)c21 | 1.07 | 1.08 |
| COc1ccc2c(c1)CCC1C2CCC2(C)C(NCCCCCCN3C(=O)C=CC3=O)CCC12 (configuration not stated) | 1.06 | 1.01 |
| CC[N+](C)(CC)CCOC(=O)C(O)(c1ccccc1)C1CCCCC1 (configuration not stated) | 0.931 | 0.87 |
| N=C(NC(=O)c1nc(Cl)c(N)nc1N)Nc1ccccc1 | 1.32 | 1.39 |
| COc1cc2ncnc(Sc3nnc(C)s3)c2cc1OC | 1.12 | 0.661 |
| OCCN1CCN(CC/C=C2/c3ccccc3Sc3ccc(C(F)(F)F)cc32)CC1 | 0.753 and 0.554 | 0.668 and 0.59 |
| O=C1NC(=O)C(c2cnc3ccccn23)=C1c1cn2c3c(cc(F)cc13)CN(C(=O)N1CCCCC1)CC2 | 0.731 | 0.355 |
| N[C@@]1(C(=O)O)C[C@@H](C(=O)O)CC1C(=O)O (some centres not stated) | 0.971 | 0.877 |
| OC(Cn1cncn1)(Cn1cncn1)c1ccc(F)cc1F | 0.841 | 0.971 |
| CCCOc1cc(N)ccc1C(=O)OCCN(CC)CC | 1.09 | 0.915 |
| Cc1ccc(-c2csc3ncnc(SCCC(=O)O)c23)cc1 | 1.1 | 1.19 |
| NCCc1c[nH]cn1 | 0.832 and 0.572 | 0.983 and 0.838 |
| CC[N+](C)(C)c1cccc(O)c1 | 0.917 | 0.884 |
| O.O.O=C([O-])CN(CCN(CC(=O)[O-])CC(=O)O)CC(=O)O.[Na+].[Na+] | 1.08 | 0.991 |
| C[C@@H](NCCCc1cccc(C(F)(F)F)c1)c1cccc2ccccc12 | 0.849 and 0.905 and 0.872 | 0.943 and 0.875 and 0.906 |
| CC(=O)Nc1cccc(-n2c(=O)n(C3CC3)c(=O)c3c(Nc4ccc(I)cc4F)n(C)c(=O)c(C)c32)c1 | 0.142 | 0.118 |
| CC(=O)[C@@]1(O)CC[C@H]2[C@@H]3C=C(Cl)C4=CC(=O)[C@@H]5C[C@@H]5[C@]4(C)[C@H]3CC[C@@]21C | 0.443 | 0.765 |
| CO[C@@H]1[C@@H](O[C@@H]2O[C@H](C)[C@@H](O[C@H]3C[C@@](C)(O)[C@@H](OC(=O)CC(C)C)[C@H](C)O3)[C@H](N(C)C)[C@H]2O)[C@@H](CC=O)C[C@@H](C)[C@@H](O)/C=C/C=C/C[C@@H](C)OC(=O)C[C@H]1O | 0.929 | 1.07 |
| N=C1CCCN1Cc1[nH]c(=O)[nH]c(=O)c1Cl | 1.01 | 0.974 |
| Nc1[nH]cnc2ncnc1-2 | 0.919 and 1.16 and 1.1 | 0.878 and 1.03 and 1.06 |
| C=CC(N)CCC(=O)O (configuration not stated) | 1.08 and 1.03 | 0.992 and 1.01 |

| Structure (SMILES) | PER2::LUC luminescence (time after treatment 24 h) | PER2::LUC luminescence (time after treatment 30 h) |
| --- | --- | --- |
| CCCCCCCCCCCCCCCC(=O)OC/C=C(C)/C=C/C=C(C)/C=C/C1=C(C)CCCC1(C)C | 0.929 and 0.69 | 0.976 and 0.869 |
| COc1ccc2c(C(=S)N(C)CC(=O)O)cccc2c1C(F)(F)F | 1.04 | 1 |
| NS(=O)(=O)c1cc(C2(O)NC(=O)c3ccccc32)ccc1Cl (configuration not stated) | 0.992 and 1 | 1.09 and 1 |
| CCN[C@H]1CN(CCCOC)S(=O)(=O)c2sc(S(N)(=O)=O)cc21 | 0.968 | 1.09 |
| CN(C)CCC(c1ccc(Cl)cc1)c1ccccn1 (racemic) | 0.96 | 0.819 |
| CN(C)c1ccc2c(c1)OC(N)=C(C#N)C2c1cccc(C(F)(F)F)c1 (configuration not stated) | 1.04 | 1 |
| CC(=O)OCC(=O)[C@@]1(O)CC[C@H]2[C@@H]3CCC4=CC(=O)CC[C@]4(C)[C@H]3[C@@H](O)C[C@@]21C | 0.627 | 0.995 |
| Cc1ncc(C[n+]2csc(CCO)c2C)c(N)n1 | 1.1 and 1.02 | 0.993 and 1.01 |
| CC(C)c1c(C(=O)Nc2ccccc2)c(-c2ccccc2)c(-c2ccc(F)cc2)n1CC[C@@H](O)C[C@@H](O)CC(=O)O | 0.511 | 0.795 |
| CCCCN(CCCC)CCCOC(=O)c1ccc(N)cc1 | 0.966 | 0.832 |
| COC(=O)Nc1nc2cc(C(=O)c3cccs3)ccc2[nH]1 | 0.756 | 0.841 |
| Cc1ccc(C(=O)c2ccc(CC(=O)O)n2C)cc1 | 1.09 and 1.07 | 1.02 and 1.08 |
| O=C(O)CN1C(=O)c2cccc3cccc(c23)C1=O | 1.04 | 1.26 |
| FC(F)(F)C(Cl)Br (configuration not stated) | 1.08 and 1.09 | 0.984 and 0.853 |
| CC(=O)OCC(=O)[C@@]1(O)CC[C@H]2[C@@H]3CCC4=CC(=O)C=C[C@]4(C)[C@@]3(Cl)[C@@H](Cl)C[C@@]21C | 0.791 | 1.33 |
| O=C(C(c1ccccc1)c1ccccc1)N1CCN(CC(O)COc2cccc3ncccc23)CC1 (configuration not stated) | 1.04 | 0.904 |
| CC(O)CN(CCN(CC(C)O)CC(C)O)CC(C)O (configuration not stated) | 0.907 | 0.977 |
| CC(=Cc1ccc(C(=O)O)cc1)c1ccc2c(c1)C(C)(C)CCC2(C)C | 1.66 | 1.52 |
| O=C(O)CCCCCCCC(=O)O | 1.07 | 0.991 |
| CC(=O)O[C@@H]1C[C@H]2C(C)(C)C(=O)CC[C@]2(C)[C@H]2CC[C@@]3(C)[C@H](c4ccoc4)OC(=O)[C@H]4O[C@]43[C@@]21C | 0.892 | 0.996 |
| CC(=O)OCC(=O)[C@@]1(O)CC[C@H]2[C@@H]3CCC4=CC(=O)CC[C@]4(C)[C@@]3(F)[C@@H](O)C[C@@]21C | 0.699 | 1.2 |

| Structure (SMILES) | PER2::LUC luminescence (time after treatment 24 h) | PER2::LUC luminescence (time after treatment 30 h) |
| --- | --- | --- |
| CC12CCC3C(CC3(C)C)C(C)(CCC1=O)O2 (configuration not stated) | 0.975 | 0.921 |
| NC1(C(=O)O)CCCCC1 | 1.16 | 1.01 |
| C=C1CC[C@H](O)C/C1=C/C=C1\CCC[C@]2(C)[C@@H]([C@H](C)CCCC(C)C)CC[C@@H]12 | 0.85 | 0.826 |
| Cc1nccnc1N1CCCCC1 | 0.992 | 0.888 |
| CC(C)(O)[C@H]1CC[C@@](C)([C@H]2[C@@H](O)C[C@@]3(C)[C@@H]4C[C@H](O[C@@H]5O[C@H](CO)[C@@H](O)[C@H](O)[C@H]5O)[C@H]5C(C)(C)[C@@H](O[C@@H]6OC[C@@H](O)[C@H](O)[C@H]6O)CC[C@@]56C[C@@]46CC[C@]23C)O1 | 0.992 | 0.908 |
| NNCCc1ccccc1 | 1.14 and 0.964 | 1.25 and 1.18 |
| CCCc1cc(C(N)=S)ccn1 | 1.13 | 1.15 |
| FC(F)(F)c1ccc(CNc2ccc(Cc3c[nH]c4ncccc34)cn2)cc1 | 0.637 | 0.617 |
| CC(C)(C)NCC(O)COc1cccc2[nH]c(=O)[nH]c12 (racemic) | 0.854 | 0.872 |
| COc1cccc2c1c(O)c(C(=O)N(C)c1ccc(C(F)(F)F)cc1)c(=O)n2C | 1.06 | 1.01 |
| CC(=O)S[C@@H]1CC2=CC(=O)CC[C@]2(C)[C@H]2CC[C@@]3(C)[C@@H](CC[C@@]34CCC(=O)O4)[C@H]12 | 0.924 and 0.815 | 0.856 and 0.951 |
| C#Cc1cccc(Nc2ncnc3cc(OC)c(OCCCCCCC(=O)NO)cc23)c1 | 0.646 | 0.861 |
| O=C(O)[C@]1(Cc2cccc(Nc3nccs3)n2)CC[C@@H](Oc2cccc(Cl)c2F)CC1 | 1.08 | 0.989 |
| CC(Cc1cccc(C(F)(F)F)c1)NCCOC(=O)c1ccccc1 (configuration not stated) | 0.875 and 0.768 | 0.831 and 0.796 |
| O=c1[nH]nc2c3c(cccc13)N=C(CN1Cc3ccccc3C1)N2 | 0.939 | 0.807 |
| COc1cc2c(NC3CCN(C(C)C)CC3)nc(C3CCCCC3)nc2cc1OCCCN1CCCC1 | 0.316 | 0.299 |
| COc1cc2c(Nc3ccc(NC(=O)c4ccccc4)cc3)ncnc2cc1OCCCN1CCOCC1 | 0.801 | 0.763 |
| COc1ccc(CNc2nc(NCc3ccc(OC)cc3)c3ncn(C(C)C)c3n2)cc1 | 0.991 | 1.22 |
| CC(=O)Nc1ccc(C(=O)Nc2ccccc2N)cc1 | 0.744 | 0.677 |
| NCC(O)C1CCCCCCC1 (configuration not stated) | 1.07 | 0.964 |
| CN1CCC(=C2c3ccccc3C=Cc3ccccc32)CC1 | 0.373 | 0.75 |

| Structure (SMILES) | PER2::LUC luminescence (time after treatment 24 h) | PER2::LUC luminescence (time after treatment 30 h) |
| --- | --- | --- |
| COc1ccc2c(=O)c(OC)c(-c3ccccc3)oc2c1 | 0.767 | 0.809 |
| COC(=O)[C@@H](N)CSC/C=C(\C)CC/C=C(\C)CCC=C(C)C | 1.05 | 0.998 |
| O=c1[nH]c(C2CCCN2)nc2c1oc1ccc(Cl)cc12 (configuration not stated) | 1.22 | 1.29 |
| N=C(N)NC(=N)NCCc1ccccc1 | 1.02 | 0.868 |
| COc1ccc(-c2cc(=O)c3ccccc3o2)cc1 | 1.72 | 1.29 |
| CO[C@H]1/C=C/O[C@@]2(C)Oc3c(C)c(O)c4c(O)c(c(/C=N/N5CCN(C6CCCC6)CC5)c(O)c4c3C2=O)NC(=O)/C(C)=C\C=C\[C@H](C)[C@H](O)[C@@H](C)[C@@H](O)[C@@H](C)[C@H](OC(C)=O)[C@@H]1C | 0.838 | 0.993 |
| CC(C)(C=O)Cc1cc(C(C)(C)C)c(O)c(C(C)(C)C)c1 | 0.882 | 0.887 |
| CC(C)(CO)[C@@H](O)C(=O)NCCC(=O)NCCSSCCNC(=O)CCNC(=O)[C@H](O)C(C)(C)CO | 0.959 and 0.942 | 1.1 and 0.88 |
| C[C@H]1O[C@H](O[C@H]2[C@H](O)[C@@H](O)[C@@H](O[C@H]3[C@H](O)[C@@H](O)C(O)O[C@@H]3CO)O[C@@H]2CO)[C@H](O)[C@@H](O)[C@@H]1N[C@H]1C=C(CO)[C@@H](O)[C@H](O)[C@H]1O (some centres not stated) | 0.986 | 0.945 |
| Cn1c(CNc2ccc(C(=N)N)cc2)nc2cc(C(=O)N(CCC(=O)O)c3ccccn3)ccc21 | 1.01 and 1.14 | 0.946 and 1.13 |
| CNC1CCCN(c2c(F)cc3c(=O)c(C(=O)O)cn(C4CC4)c3c2OC)C1 (configuration not stated) | 1.05 | 1.04 |
| CC[C@H]1[C@@H](O)[C@@H]2[C@H](CC[C@]3(C)[C@@H]([C@H](C)CCC(=O)O)CC[C@@H]23)[C@@]2(C)CC[C@@H](O)C[C@@H]12 | 1.02 | 1.12 |
| CN1CCN(CC/C=C2/c3ccccc3Sc3ccc(S(=O)(=O)N(C)C)cc32)CC1 | 0.816 and 0.638 | 0.993 and 0.631 |
| CCOCCn1c(C2CCN(CCc3ccc(C(C)(C)C(=O)O)cc3)CC2)nc2ccccc21 | 1.04 | 0.962 |
| CCCCCC1C(=O)CCC1CC(=O)OC (configuration not stated) | 1.06 | 0.978 |
| CC(C)=CCC/C(C)=C/CC/C(C)=C/CC/C(C)=C/C(=O)O | 1.07 | 0.976 |
| C=C(CC)C(=O)c1ccc(OCC(=O)O)c(Cl)c1Cl | 0.817 | 0.944 |
| CCCCCOc1ccc(-c2ccc(-c3ccc(C(=O)N[C@H]4C[C@@H](O)[C@@H](O)NC(=O)[C@@H]5[C@@H](O)[C@@H](C)CN5C(=O)[C@H]([C@@H](C)O)NC(=O)[C@H]([C@H](O)[C@@H](O)c5ccc(O)cc5)NC(=O)[C@@H]5C[C@@H](O)CN5C(=O)[C@H]([C@@H](C)O)NC4=O)cc3)cc2)cc1 | 0.982 | 0.954 |

From the supplement of paper PMC9334596
